# Reference: PubChem BioAssay AID588795 (National Center for Advancing Translational Sciences (NCATS), 2011)
# Hit rate of the full screen: of about 390,000 compounds, about 1,400 (0.36%) were called active. Inconclusive means that the source gave no clear call. Such entries were picked first, then a sample of the others. Calls come from the whole dose curve; as a rule, active = well fitted inhibition curve with a large enough effect; inconclusive = small, poorly fitted or top-dose-only effect; inactive = no such curve, though single readings can be large or run the other way. A potency beside an inconclusive call is a rough fit, not a confirmed value.
# Target: Flap endonuclease 1 (Homo sapiens) (UniProt P39748)
# Assay: qHTS Assay for the Inhibitors of Human Flap endonuclease 1 (FEN1). Note: nearly all actives have a fitted effect of over 65% in size.
# Conditions: Recombinant FEN1 flap cleavage, fluorescence, 15 min; series mostly up to 114 µM
# How it was run: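 FEN1 at 10 nM preincubated with compounds 15 min at room temperature, then flap DNA substrate added at 50 nM final. Signal read at 0 and 15 min; concentration-response fitted with four-parameter Hill equation.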
# Potency is the fitted concentration of half-maximal effect; tags give direction and shape of the fitted curve.
# Sequence of UniProt P39748 (P39748 whole entry, looked up): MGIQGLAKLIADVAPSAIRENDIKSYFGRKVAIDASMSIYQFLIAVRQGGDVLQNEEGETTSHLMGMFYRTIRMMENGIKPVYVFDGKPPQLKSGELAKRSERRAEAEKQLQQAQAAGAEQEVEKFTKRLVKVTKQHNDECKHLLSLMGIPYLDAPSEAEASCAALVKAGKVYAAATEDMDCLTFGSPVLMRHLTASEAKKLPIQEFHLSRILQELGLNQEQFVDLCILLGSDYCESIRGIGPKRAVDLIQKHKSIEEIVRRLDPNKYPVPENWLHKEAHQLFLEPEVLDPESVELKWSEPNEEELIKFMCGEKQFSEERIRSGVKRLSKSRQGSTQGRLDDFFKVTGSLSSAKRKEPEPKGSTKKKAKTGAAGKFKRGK
row,SMILES,Potency
1,COc1ccc([C@H]2[C@H](C(=O)OC(C)(C)C)N3N=Cc4ccccc4C3C23C(=O)c2ccccc2C3=O)c(OC)c1 (stereo not given in full),"inconclusive: 39.8 µM [inhibitor, single point]"
2,COc1cc(/C=C(\C#N)C(=O)c2ccc(O)c(O)c2)cc(I)c1O,active: 3.55 µM
3,CCOC(=O)c1sc(Nc2ccccc2Cl)nc1C,"inconclusive: 10 µM [inhibitor, full curve]"
4,CC1(C)OC(=O)C2(Cc3ccccc3N3CCCC32)C(=O)O1 (stereo not given),inactive
5,Cc1ccc2c(c1)c1c(c(=O)n(-c3ccccc3C)c(=O)n1Cc1ccccc1F)n2C,"inconclusive: 3.55 µM [inhibitor, partial curve, poor fit]"
6,O=C(NCc1ccc2c(c1)OCO2)c1ccc(Br)cc1,inactive
7,CCOc1ccc(-c2cccc(NS(=O)(=O)c3ccc(Cl)s3)c2)nn1,inactive
8,COc1ccc(CNC(=O)c2ccc(Sc3ccc(Cl)cc3)c(NC(C)=O)c2)c(OC)c1,inactive
9,CCN(CC)C(=O)c1cn(CCC#N)nc1-c1ccc(F)cc1,inactive
10,CC(=O)N(C1=C(Cl)C(=O)c2ccccc2C1=O)C1CCCCC1,"inconclusive: 79.4 µM [inhibitor, single point]"
11,COc1ccc(CCn2c(=N)c(C(=O)NCCN3CCOCC3)cc3c(=O)n4cccc(C)c4nc32)cc1OC,"inconclusive: 63.1 µM [inhibitor, partial curve, poor fit]"
12,Cc1cc(C)c2c(=O)n(CC(=O)Nc3ccc(Br)c(C)c3)sc2n1,"inconclusive: 89.1 µM [inhibitor, single point]"
13,CC(C[N+](C)(C)C)OC(N)=O (stereo not given),"inconclusive: 8.44 µM [inhibitor, single point]"
14,Cc1cccc(OCC(=O)N(Cc2cccc(Cl)c2)Cc2ccco2)c1C,inactive
15,CC(=O)Nc1ccc2c(c1)CCc1ccccc1-2,inactive
16,CNS(=O)(=O)c1ccc2nc(NC(=O)c3ccc(N4C(=O)CCC4=O)cc3)sc2c1,"inconclusive: 89.1 µM [inhibitor, partial curve, poor fit]"
17,Cc1c2cnccc2c(C)c2c1oc1ccccc12,active: 35.5 µM
18,Oc1ccc(N=Cc2c(O)ccc3ccccc23)cc1,"inconclusive: 12.6 µM [inhibitor, partial curve, poor fit]"
19,Cc1ccc(NC(=O)C(Cc2ccccc2)NS(=O)(=O)c2ccc3c(c2)c(=O)n(C)c(=O)n3C)cc1 (stereo not given),"inconclusive: 3.55 µM [inhibitor, partial curve, poor fit]"
20,CN1/C(=C\C=C2/SC(=S)N(CC(=O)O)C2=O)C(C)(C)c2ccccc21,"inconclusive: 20 µM [inhibitor, full curve, poor fit]"
21,COCCN=c1scc(-c2cccs2)n1/N=C/c1ccc(O)c(O)c1O,"inconclusive: 15.8 µM [inhibitor, partial curve, poor fit]"
22,Cc1ccc(CN2C(=O)c3ccccc3S(=O)(=O)c3ccc(C(=O)OCC4CCCO4)cc32)cc1 (stereo not given),inactive
23,CC1CCCN(C(=O)c2cc(-c3cccs3)nc3ccccc23)C1 (stereo not given),"inconclusive: 89.1 µM [inhibitor, partial curve, poor fit]"
24,NC1=NC(=O)/C(=C/c2cc(Br)c(O)c(Br)c2)S1,inactive

row,SMILES,Potency
1,NC(=S)N=Nc1c(O)cc(O)c2[nH]c(=O)ccc12,active: 12.6 µM
2,Nc1nnc(SCC(=O)NCC(=O)Nc2ccc(F)c(F)c2F)s1,"inconclusive: 79.4 µM [inhibitor, single point]"
3,C/C(=N\NC(=O)c1cccc(N/N=C(\C)c2ccncc2)c1)c1ccncc1,"inconclusive: 39.8 µM [inhibitor, partial curve, poor fit]"
4,NC(=S)NN=C1c2cc(OCCN3CCOCC3)ccc2-c2ccc(OCCN3CCOCC3)cc21,"inconclusive: 28.2 µM [inhibitor, full curve]"
5,O=[N+]([O-])c1ccccc1N=Nc1ccc(O)cc1O,"inconclusive: 79.4 µM [inhibitor, single point]"
6,COC(=O)c1ccc(OCC(=O)NC2CCCCCC2)cc1,inactive
7,Cc1ccccc1NC(=O)Cn1c(=O)n(Cc2ccco2)c(=O)c2cccnc21,"inconclusive: 79.4 µM [inhibitor, partial curve, poor fit]"
8,CCOC(=O)c1ccccc1NC(=O)CSc1ncc2c(n1)-c1ccccc1N(CC)S2(=O)=O,inactive
9,c1ccc(CCNc2ccnc3cc4ccccc4cc23)cc1,active: 50.1 µM
10,CCOc1ccccc1NC(=O)N1CCN(Cc2cc(=O)n3nc(-c4ccc(C)cc4)sc3n2)CC1,inactive
11,C=CCNC(=S)NNC(=O)c1ccco1,inactive
12,CC(C)NS(=O)(=O)c1ccc(OCC(=O)N2CCN(c3ccccc3F)CC2)cc1,inactive
13,COc1ccc(NC(=O)CC(CC(=O)O)c2cc(OC)c(OC)c(OC)c2)cc1 (stereo not given),inactive
14,CCN(CC(=O)NC1CCS(=O)(=O)C1)S(=O)(=O)c1ccc(F)cc1 (stereo not given),inactive
15,CCn1cc(C(=O)O)c(=O)c2cc(F)c(N3CCN(S(=O)(=O)c4ccc(NC(=O)OC)cc4)CC3)cc21,"inconclusive: 79.4 µM [inhibitor, partial curve]"
16,Cc1noc(/C=C/N(C)C)c1S(=O)(=O)N1CCC(C(=O)O)CC1,"inconclusive: 20 µM [inhibitor, partial curve, poor fit]"
17,CC(=O)[C@@H]1[C@@H]2C(=O)N(Cc3ccccc3)C(=O)[C@@H]2C2c3ccccc3C=CN21 (stereo not given in full),inactive
18,O=C(O)c1ccc(-n2[nH]c3c(c2=O)CCCC3)cc1,inactive
19,CCOC(=O)c1ccccc1NC(=O)c1sc2ncn(CC)c(=O)c2c1C,inactive
20,O=C(C1=C(Nc2ccccc2)c2ccccc2S(=O)(=O)N1)c1ccccc1,"inconclusive: 79.4 µM [inhibitor, partial curve, poor fit]"
21,COc1ccc(Nc2nc(-c3c(C)nc4ncccn34)cs2)cc1,"inconclusive: 79.4 µM [inhibitor, single point]"
22,COc1cc2nc(N3CCCN(C)CC3)nc(NC3CCNCC3)c2cc1OC,active: 25.1 µM
23,Cn1cc(SCC(=O)Nc2nc3ccccc3s2)c2ccccc21,"inconclusive: 31.6 µM [inhibitor, partial curve, poor fit]"
24,CCOC(=O)c1cnc2c(ccc3ccccc32)c1NCCN(C)C,"inconclusive: 22.4 µM [inhibitor, partial curve, poor fit]"

row,SMILES,Potency
1,CCN(CCCNC(=O)CCc1nc(-c2ccc(C)cc2)no1)c1cccc(C)c1,inactive
2,C=CCN1CCc2c(cc(O)c(O)c2Cl)C(c2ccccc2)C1 (stereo not given),"inconclusive: 8.44 µM [inhibitor, single point]"
3,COc1ccc(S(=O)(=O)N(CCc2ccccc2)CC(=O)Nc2cc(Cl)ccc2C)cc1,"inconclusive: 89.1 µM [inhibitor, single point]"
4,O=Cc1ccc(O)cc1O,inactive
5,Cc1cc(NC(=O)CN2CCN(C)CC2)no1,"inconclusive: 89.1 µM [inhibitor, single point]"
6,Cc1ccc(Cl)cc1NC(=S)N(CCN(C)C)Cc1cccs1,"inconclusive: 89.1 µM [inhibitor, partial curve, poor fit]"
7,CNc1nc(C(=O)O)nc(N2CCOCC2)n1,inactive
8,COc1ccc([N+](=O)[O-])cc1NC(=O)Nc1ccc(OC)c(OC)c1,inactive
9,Brc1ccc(-c2nn3c(-c4ccco4)nnc3s2)o1,"inconclusive: 89.1 µM [inhibitor, single point]"
10,COc1cc2c(cc1OC)C(C1C(=O)CC(C)(C)CC1=O)N(C(=O)CCl)CC2 (stereo not given),"inconclusive: 89.1 µM [inhibitor, single point]"
11,COc1ccc(-c2noc(COc3ccc(C)c(C)c3)n2)cc1OC,"inconclusive: 89.1 µM [inhibitor, partial curve, poor fit]"
12,COc1ccccc1CCNC(=O)c1cc(-c2ccncc2)nc2ccc(Br)cc12,inactive
13,O=C(O)COc1ccccc1C(Nc1cccnc1)c1cc(Cl)c2cccnc2c1O (stereo not given),"inconclusive: 35.5 µM [inhibitor, full curve]"
14,CC(=O)NC(c1ccco1)c1cc(Cl)c2ccccc2c1O (stereo not given),"inconclusive: 25.1 µM [inhibitor, partial curve, poor fit]"
15,CN1CCN(C(c2ccc(Cl)cc2)c2cc(Cl)c3cccnc3c2O)CC1 (stereo not given),"inconclusive: 17.8 µM [inhibitor, partial curve, poor fit]"
16,Oc1sc(C=Nc2ccc(F)cc2)c2ccccc12,"inconclusive: 89.1 µM [inhibitor, partial curve, poor fit]"
17,O=[N+]([O-])c1c(NCCCO)cc(Sc2ccc(Cl)cc2)c2nonc12,"inconclusive: 44.7 µM [inhibitor, partial curve]"
18,Cc1csc(NC(=O)CSc2nc3[nH]ncc3c(=O)[nH]2)n1,inactive
19,O=C(O)c1cc(O)c2c(c1)C(=O)c1cc(O)cc(O)c1C2=O,"inconclusive: 20 µM [inhibitor, full curve]"
20,Cn1c(=O)c(=O)n(C)c2cc(N3CCCC3)c(NC(=O)c3ccccc3Cl)cc21,"inconclusive: 89.1 µM [inhibitor, partial curve, poor fit]"
21,CCC1Oc2ccccc2N(CC(=O)NCc2ccccc2)C1=O (stereo not given),inactive
22,C#CCOCCOCCOCCNc1nc(N2CCN(C(=O)[C@H](CCCCN)n3cc([C@@H](N)C(C)CC)nn3)CC2)nc(N2CCN(C(=O)[C@H](Cc3cc4ccccc4[nH]3)n3cc([C@@H](N)CC(C)C)nn3)CC2)n1 (stereo not given in full),"inconclusive: 50.1 µM [inhibitor, partial curve]"
